# The supplement of paper PMC11417369
# ± gives the standard deviation of the averaged measurements. This is one part of the list.
# System: PfAP2-LT AP2 domain (GST-tagged)
# Assay: gcPBM binding intensity (ln(normalized median fluorescence intensity)); higher = stronger DNA binding
# How it was run: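 Probes on an Agilent 4 × 180k array were primer-extended, double-stranded and 36 bp long, taken from intergenic genomic regions, with negative controls added. GST-tagged P. falciparum DNA-binding domains from E. coli, about 25 μg on average, were applied to the array for 1 h in 1× PBS containing 1% milk, 0.2 mg/ml BSA, 0.5% salmon testes DNA and 0.03% Triton X-100. Binding intensity, obtained after Alexa488 anti-GST antibody detection and a 488 nm scan, is the highest Masliner-normalised natural-log median intensity across replicate spots of either probe orientation.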
row,Sequence,gcPBM binding intensity (ln)
1,ATAAAAATCATGTTGGTGCGAAATTTTATTATCAGA [GTGCAC_site9735],8.62 ± 0.44
2,AATTATTTACCCTATACACACAAAACAGACTAAAAA [CACACA_site6688],9.06 ± 0.35
3,AAGGTATGATTAATCACACACATAAATATATATACA [CACACA_site2658],9.24 ± 0.4
4,TTATGTATAAACACACGTACACACACTAAGTATATC [XGTACX_site3254],9.41 ± 0.24
5,ATGTTTTTAAAAAATTGTACATAATATTTTTTATAA [XGTACX_site7692],8.43 ± 0.42
6,TATATATATATATATATAATACGAATTTGTAGTACA [TGCATGCA_negctrl_site224],9.05 ± 0.3
7,TATTATTGCATATTTACACACGTACTAATTTAAACA [CACACA_site970],9.07 ± 0.4
8,AAAATAATGTATATATGTACATATAAATATATATAT [XGTACX_site8081],8.98 ± 0.49
9,TTGTATATTTTATGTACACACAATAAGTTAATATAA [CACACA_site4655],8.63 ± 0.43
10,TTTTTCTATAAAAAAAAAAAAAAAAAATATATATAT [TGCATGCA_negctrl_site535],8.12 ± 0.34
11,ATAAAAGGAAGAAAATGTACATATAATTATATGCAT [XGTACX_site8421],8.88 ± 0.47
12,TGTATACTATTAAATTGTACACATAAGAAATATTAT [XGTACX_site5839],8.64 ± 0.33
13,TTTTACAAATATAATGGGTGAGCTATCAAAATAAAT [GTGCAC_negctrl_site91],8.58 ± 0.44
14,AATAATTGTAGACATGCACACACAAATATTATATAT [CACACA_site8181],9.53 ± 0.4
15,CCTTTCTATTGAAAATGTACATATATATTATTATAT [XGTACX_site5527],8.77 ± 0.48
16,AATAATTGTTATAGTTGTACAATACATATATTACAA [XGTACX_site30],8.68 ± 0.48
17,TGTATATATAAAAATATACACACTGTATTATTGTAA [CACACA_site3757],8.71 ± 0.46
18,CATATTTTGAACTTCACACATATATATATATATATA [CACACA_site4228],9.62 ± 0.37
19,GGTAGATTATTATTAACGAAAAATGTTTTTAACATA [GTGCAC_negctrl_site216],8.28 ± 0.47

row,Sequence,gcPBM binding intensity (ln)
1,TATATACAGAATATATGTACATATTCATTTTATATT [XGTACX_site5139],8.73 ± 0.42
2,AAATAAAAAATGGAAATCTTAACAAGAATCATTAAC [CACACA_negctrl_site1626],8.71 ± 0.53
3,AAAAAATAAATAAATAGTACTTTAAAAGAAAAAAAA [XGTACX_site5051],8.55 ± 0.51
4,CAATGTTACTATAATACACACAATATGTATTTGTCT [CACACA_site6668],9.09 ± 0.35
5,AAAGAAAACCAAGTGGTGCATTTTCGTTACTTCATC,8.75 ± 0.48
6,TTGTTTAACTTGTTAAATATAATGTATCTGTGGATA [GTGCAC_negctrl_site108],8.47 ± 0.39
7,AATATATATACTTTTTTTTTTTTTTTTTTTTTTTTT [CACACA_negctrl_site520],8.7 ± 0.16
8,TATGTTTACATATACGTGCACATGAATGTATACATT [GTGCAC_site9894],8.96 ± 0.28
9,ACAAATTGTTAAAGGTGTACAATACATATATAAGAA [XGTACX_site4906],9.1 ± 0.53
10,TTTAGCACAAACAAAAAAAAAATAGAAAAAAATATA [CACACA_negctrl_site1772],8.47 ± 0.55
11,TTATATTTATATGTAATACAAAATAACAAAAAATTT [CACACA_negctrl_site1721],8.45 ± 0.37
12,TTGGTAATTTTAAAATGTACTTATTATATATATATA [XGTACX_site5642],8.56 ± 0.42
13,TATATATATATATCCACACACATACATATATTAATA [CACACA_site69],9.29 ± 0.34
14,TATACACTTGTAATAACACACATTATTTTTTTTTTT [CACACA_site1324],8.83 ± 0.42
15,ATAAAAAATTTAAGTATTTTTTACAAACCTATAAAT [GTGCAC_negctrl_site51],8.33 ± 0.49
16,AATTAACCGAAACACACACACATATATATATATATA [CACACA_site3963],10.24 ± 0.064
17,ATATATTTTTTTTAGCGTACATGCAAAAAAAAAAAA [XGTACX_site4590],8.36 ± 0.33
18,TTTTGTTGTTGTTGTTGTACATAAATAATAAAATAT [XGTACX_site8681],8.56 ± 0.35
19,TATACACACAGACATGCATGCACATATATATATACA [TGCATGCA_site30],9.54 ± 0.42

row,Sequence,gcPBM binding intensity (ln)
1,TATTTATTCACTTATTGTACTTATATATATAATAAA [XGTACX_site6147],8.65 ± 0.31
2,ATTTTTTTTTGTTTAATGTTATGTGGTCATTAAATT [CACACA_negctrl_site1177],8.78 ± 0.48
3,AAATTAAAAGAAAATACACACCTGTGGGTGCTTATA [CACACA_site5143],8.59 ± 0.44
4,AACATAAATTACTTTTTACACACTAATATAAAATAC [CACACA_site8297],8.73 ± 0.42
5,AATTGCTCGATATATGCACACAGTTTTGTTATTTTT [CACACA_site8465],9.38 ± 0.29
6,AAAACACGCGGACACACACACACACGCCCACATATA [CACACA_site7105],10.1 ± 0.33
7,ACTTTCAAGGATGTACGTACATATGTATTTTATAAC [XGTACX_site6714],8.99 ± 0.42
8,AATTAATTTATTTTATAAATAGTTAGATCGTCATAA [GTGCAC_negctrl_site660],8.32 ± 0.42
9,ATTTCATTAAAGATTACATGCAATTCTATATTATTT [TGCATGCA_site260],8.69 ± 0.36
10,AATATATATTTCTAAGATAAAACCCAAGGATAAAAA [CACACA_negctrl_site735],8.53 ± 0.45
11,AACATATTTTTTCTTAAACACACACCGATATATATA [CACACA_site8919],9.03 ± 0.29
12,TCTGTAAATATGTATACACACATATCTGATCAATAT [CACACA_site5743],9.14 ± 0.39
13,TCATGTAACCATTCATGTACTCAAAAAAAAAAAAAA [XGTACX_site1027],8.33 ± 0.38
14,TTTTTTATGATTAACACACACACAAAAAAAAAAAAA [CACACA_site4130],9.03 ± 0.32
15,AAAAAAAAAACAAATACACACGCACCCAAAAAAAAA [CACACA_site8166],9.61 ± 0.18
16,TTTTATATATATATATATATATATATATATGTATAT [CACACA_negctrl_site173],9.33 ± 0.21
17,AAATGAAAGAACAGCACACATATATATTATATATAA [CACACA_site2002],9.08 ± 0.54
18,TTATATATATGTAATTGTACTTTTAATTTTTTTTTA [XGTACX_site4357],8.47 ± 0.61
